# “And” between values parts separate entries of the source, which are not always exact repeats. Identical values can stand only once.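 1) Cells in 96-well plates. 2) Compound, 48 h, 5 concentrations. 3) Linear interpolation between surrounding doses. 4) Unreached endpoint = highest concentration. GI50 marks 50% less growth. TGI marks complete inhibition of growth.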
# System: NCI-H322M lung
# Experiment: NCI-60 cell line screen, 48 h
Structure (SMILES),TGI [µM],GI50
CCCCN(CCCC)C(=O)C(=O)C(C(=O)C(=O)OC)c1nc2ccccc2o1 (stereo not given),> 100,
COc1ccc(-c2c(C(C)=O)c(C)n(C3OC(COC(C)=O)C(OC(C)=O)C(OC(C)=O)C3OC(C)=O)c(=S)c2C#N)cc1 (stereo not given),> 100,
CCOC(=O)c1csc(NC(=O)CCN2CCOCC2)n1,> 100,
CC(C)[C@]12O[C@H]1[C@@H]1O[C@]13[C@]1(O[C@H]1C[C@H]1C4=C(CC[C@@]13C)C(=O)OC4)[C@@H]2OC(=O)OC(C)(C)C,> 100,0.0204 µM
CC1(C)OC[C@@H]([C@H](C=O)OCc2ccccc2)O1,> 100,
CN1CCN(Cn2nc(-c3ccccc3)n(/N=C/c3ccc(-c4ccc(Cl)cc4Cl)o3)c2=S)CC1,99.2,
CCOC(=O)c1ccc(N(C)Cc2cnc3nc(N)nc(N)c3n2)cc1,> 100,
COc1ncnn2ccc(-c3cnc4nc(C)n(Cc5nnc(C(C)F)o5)c4c3)c12 (stereo not given),> 93.1,0.408 µM
Cc1ccc(C2=NN=C3C(c4ccccc4)=Nc4ccccc4N3C2)cc1,> 73.3,
C=CC(C)(C)c1c(OC)oc2ccc(OC)c(C)c2c1=O,> 100,
Nc1ccc(-c2nnc(-c3c(Cl)c(Cl)c(Cl)c(Cl)c3-c3nc4ccc(C(=O)c5ccccc5)cc4[nH]3)o2)cc1,> 100,
CCN1CCC(O)(/C=C/c2cccc(C)c2)C(C(=O)/C=C/c2cccc(C)c2)C1 (stereo not given),14.7,
COc1cc(CN(C)N2C(=O)c3cccc4cc([N+](=O)[O-])cc(c34)C2=O)cc(OC)c1OC,> 100,
COc1cc(Br)cc2c1O[C@H]1C(=O)CC3CC21CCN3C (stereo not given in full),> 100,
CCN1C2=C(SC(=S)C1=C1SC(C(=O)c3ccccc3)=C(C(=O)c3ccccc3)S1)SC(=Nc1ccccc1)C2=O,> 100,> 79.3 µM
CC[C@@]1(O)C(=O)OCc2c1cc1n(c2=O)Cc2cc3c(OC)cccc3nc2-1,> 30.3,
CCOC(=O)c1cc2c(OC)cc(OC)cc2oc1=O,> 100,
Brc1ccc(N=C/C=C(\Nc2ccc(Br)cc2)C23CC4CC(CC(C4)C2)C3)cc1,> 100,
Cc1ccc(NC(=O)CC2SC(=Nc3cccc(Cl)c3C)NC2=O)cc1 (stereo not given),> 100,
Cc1ccc(OC2CC(n3cnc4c(=O)[nH]c(Br)nc43)OC2Oc2ccc(C)cc2)cc1 (stereo not given),47.7,
COc1ccc(/C=C2\C(=O)Nc3ccccc32)cc1OC,> 100,
CCCc1c(O)c2ccccc2[nH]c1=O,> 100,
COc1ccc(-c2cc(=O)c3cc4c(cc3[nH]2)OCO4)c(OC)c1,> 100,
CC1=N/C(=C\c2ccc(N)cc2)C(=O)N1Nc1nnc(NN2C(=O)/C(=C/c3ccc(N)cc3)N=C2C)c2ccccc12,> 100,

Structure (SMILES),TGI [µM],GI50
O=C(Cc1c(C(=O)Nc2ccccc2)sc(C(=O)Nc2ccccc2)c1CC(=O)Nc1ccccc1)Nc1ccccc1,9.83,
Cc1cc(C)c2c(=O)cc(-c3ccc(F)cc3)[nH]c2n1,> 100,
Nc1nc(N)c2cc(Sc3ccc(Cl)cc3)ccc2n1,12.8,1.53 µM
O=C1NC(=S)NC1C(Cc1ccccc1)c1ccco1 (stereo not given),> 100,
COC(=O)c1oc([N+](=O)[O-])c(-c2ccccc2)c1-c1ccccc1,> 100,
COC(=O)CC12CC(NC(=O)c3csc([C@@H](C[C@H](C(C)C)N(C)C(=O)[C@@H](NC(=O)[C@H]4CCCCN4C)C(C)C)OC(C)=O)n3)(C1)C2,> 33.3,0.00407 µM and 0.0153 µM
NNC(=S)N/N=C/c1ccccn1,> 100,3.17 µM
COc1ccc(-c2nnc3c4ccccc4sn23)cc1,> 100,
CC1(C)OP(=O)(c2ccccc2)C=C1Br (stereo not given),> 100,
CC1OC(n2ccc3ccc([N+](=O)[O-])cc32)C(O)C(O)C1O (stereo not given),> 100,
c1ccc(C2C3=C(c4ccccc4CC3)N3c4cc5nc6ccccc6nc5cc4NC34CCCCC24)cc1 (stereo not given),> 10,
Cc1ccc(C)n1-n1c(Cc2ccc(Cl)cc2)n[nH]c1=O,> 100,
Oc1c(CCl)cc(Cl)cc1Cc1cc(Cl)cc(Cc2cc(Cl)cc(CCl)c2O)c1O,13.5,3.13 µM
COc1cc(C)cc(C(=O)OCc2ccccc2)c1C1=C(Cl)C(=O)C(Cl)=CC1=O,> 10,
CC(=O)OC1C(COC(N)=O)OC(n2c(-c3ccc(C)cc3)cc(-c3ccccc3)c(C#N)c2=O)C(OC(C)=O)C1OC(C)=O (stereo not given),> 100,
COc1cc(C2SC(N)=Nc3c2c(C)nn3C(=O)Cc2ccccc2)cc(OC)c1OC (stereo not given),> 100,
CC[C@H](C)[C@H](NC(=O)[C@H](Cc1ccc(O)cc1)NCC(F)(F)F)C(=O)OC(C)(C)C,16.5,
CN1C[C@@H]2CC(=O)CC[C@@H]2C[C@H]1C#N,> 100,
O=C(NC/C=C/CO)c1ccccc1,> 100,
NC(=S)Nc1c(S(N)(=O)=O)cc(S(N)(=O)=O)c(Cl)c1Cl,> 100,
COc1cc(/C=C2\N=C(c3ccccc3)N(c3ccc4c(c3)Sc3cc(N5C(=O)/C(=C/c6cc(OC)c(OC)c(OC)c6)N=C5c5ccccc5)ccc3N4)C2=O)cc(OC)c1OC,37.6,
CCC1CN2CCc3cc(OC)c(OC)cc3C2CC1CC1c2cc(OC)c(OC)cc2CCN1C(=O)C(Cc1c[nH]c2ccccc12)NC(=O)OC(C)(C)C (stereo not given),16.6,
Nc1cc2c(c3ccccc13)C(CCl)CN2C(=O)c1cc2cc(NC(=O)c3cc4ccccc4o3)ccc2[nH]1 (stereo not given),913,> 0.11 µM
CCOC(=O)Nc1nc(-c2ccccc2)c(C)s1,> 100,

Structure (SMILES),TGI [µM],GI50
CCCC(c1cc(C(C)(C)C)c(O)cc1C)c1cc(C(C)(C)C)c(O)cc1C,14.5,
C=CC[C@H](O)[C@@](NC(=O)OCc1ccccc1)(Sc1ccc(C)cc1)C(F)(F)F,> 100,
Cc1ccc(S(=O)(=O)NN=C2C(C)CC(C(C)(C)C)CC2C)cc1 (stereo not given),34,
CCOC(=O)C(=NN(C)c1ncccc1N)C(=O)OCC,> 100,
O=C(O)c1cc(C(=O)C(=O)c2cc(C(=O)O)c(O)c3ccccc23)c2ccccc2c1O,> 100,
CCOc1ccc(-n2c(=O)c3nn4c(=O)n(-c5ccc(OCC)cc5)c(=O)c4nn3c2=O)cc1,> 100,
Cc1c(/C=N/NC(=S)Nc2ccc([N+](=O)[O-])cc2)c(=O)n(-c2ccccc2)n1C,47.5,
CC(=O)N[C@@H](Cc1ccc(OP(=O)(O)O)cc1)C(=O)N[C@H]1CCC(=O)N2CCC[C@@H](C(=O)NCc3cccc4ccccc34)N2C1=O,> 25,> 25 µM
Nc1n[nH]c2ccc([C@H]3[C@@H]4C5CCC(C5)[C@@H]4c4c(ccc5[nH]ncc45)N3S(=O)(=O)C3CC3)cc12 (stereo not given in full),> 50,0.333 µM
Fc1ccc(-c2nn3c(COc4ccccc4Cl)nnc3s2)cc1Oc1ccccc1,54.9,22.7 µM
O=C(OC1C#CCSCC#C/C=C\1)c1cnc2ccccc2n1 (stereo not given),> 100,
CC1=CC=C2C(C)(C)CC[C@@H]3OC(=O)[C@H]1[C@]23C,> 100,
C=C1CC2(C)CCC(OC(=O)C3(C)OC3C)C(C)(OC(C)=O)C2CC1=C(C)C (stereo not given),> 100,
CCOC(=O)Nc1ccc2c3c(cccc13)-c1ccccc1-2,> 100,5.27 µM
CCN(CC)CCOc1ccc(N2Cc3cc(OC)c(OC)cc3C2=O)cc1,> 100,
COC(=O)Nc1nc2ccc(C(=O)C3CC3)cc2[nH]1,> 100,0.586 µM
CC(C)(Cl)C(Br)CCC(=CCBr)CBr (mixture of isomers),28,
Clc1ccc(Nc2ncnc3ccccc23)cc1,> 100,7.47 µM
CC(C)c1ccc2c(c1)CCC1C(C)(CN)CCCC21C (stereo not given),3.1,
CO[C@@H]1[C@H](N(C)C(=O)c2ccccc2)C[C@@H]2O[C@]1(C)n1c3ccccc3c3c4c(c5c6ccccc6n2c5c31)C(=O)NC4=O,> 100,10.5 µM
CNc1cccc(-c2cc(=O)c3cc4c(cc3[nH]2)OCO4)c1,> 100,
CN1C(=O)CNS1(=O)=O,> 100,
COc1cc2c(OC)c3cc(C)oc(=O)c3c(O)c2c(O)c1-c1c(OC)cc2c(OC)c3cc(C)oc(=O)c3c(O)c2c1O,41.4,
Brc1ccc2[nH]cc([C@@H]3CN[C@@H](c4c[nH]c5ccc(Br)cc45)CN3)c2c1,17.3,

Structure (SMILES),TGI [µM],GI50
CC12OC(C(=O)C13CC3)C1C(=O)c3cccc(O)c3C(=O)C12 (stereo not given),> 47,14.4 µM
CC[C@H]1[C@@H](C)C=C[C@@H](C)N1S(=O)(=O)c1ccc(C)cc1,> 100,
O=C1/C(=C\c2ccc(Cl)cc2)CN(C(=O)c2ccccc2)C/C1=C\c1ccc(Cl)cc1,> 100,25.9 µM
Cc1cc2c(=O)cc(-c3ccc(C(=O)O)cc3)oc2c(C(N)=O)c1C,> 100,
O=C(O)COc1ccc2c3c1C(=O)CCC3CO2 (stereo not given),> 100,
Cc1cn2c(/C=N/NC3=NCCN3)c(-c3ccc(Cl)c([N+](=O)[O-])c3)nc2s1,1.83,0.83 µM
CC(Cc1ccc(O)cn1)(NC(=O)c1ccccc1)C(=O)O (stereo not given),> 100,
C/C(CC(O)(C(F)(F)Cl)C(F)(F)Cl)=N\Nc1ccccc1,> 100,
COC(=O)C(=O)C(C(=O)C(=O)Nc1ccccc1C(N)=O)c1nc2ccc([N+](=O)[O-])cc2[nH]c1=O (stereo not given),> 100,
Cc1ccc([N+](=O)[O-])cc1S(=O)(=O)Nc1ccc(C(=O)/C=C/c2ccccc2)cc1,42.9,
COc1ccc2cc(NC(=O)Nn3cnnc3)ccc2c1,> 100,
COC1OC(CO)C(O)C(NC(=O)N(C)N=O)C1O (stereo not given),> 100,
CC1(C)CC(=O)c2c(nc3c(ccc4ccccc43)c2-c2ccc(NC(=O)CCCCCCCCC(=O)Nc3ccc(-c4c5c(nc6c4ccc4ccccc46)CC(C)(C)CC5=O)cc3)cc2)C1,> 100,
Cc1ccc2[nH]c3c(C)c4cc[n+](C)cc4c(C)c3c2c1,10.4,
N[C@@H]1c2c(Br)sc(Br)c2C(=O)[C@H]1Br,> 100,
CN(CC(=O)O)S(=O)(=O)c1ccc(Cl)cc1,> 100,
CCOC(=O)c1c2c(n(Cc3ccccc3)c1C)-c1nc[nH]c1C(=O)C2=O,27.6,14.3 µM
O=C1NC(=N[C@@H]2C[C@H]2c2ccccc2)S/C1=C\c1ccc2ncccc2c1,> 14.9,0.939 µM
O=C(c1ccccc1)c1ccc(N2C(=O)/C(=C/c3cccc([N+](=O)[O-])c3)N=C2c2ccccc2)c(N2C(=O)/C(=C/c3cccc([N+](=O)[O-])c3)N=C2c2ccccc2)c1,> 100,
Cc1cc2c(cc1C)[n+](=O)c(C(=O)CC(=O)C(=O)Nc1ccccc1C)c(C)n2[O-],> 100,
Cc1cc2c(=O)cc(-c3ccc(Cl)c(Cl)c3)oc2c(C(=O)O)c1C,> 100,
CCOC(=O)C(=O)N=Nc1c(O)[nH]c2ccccc12,> 100,
COc1cc(S(=O)(=O)Nc2ccc(-c3csc(/N=C\c4ccccc4O)n3)cc2)ccc1Cl,> 100,
